Source: the RNAGym collection of RNA variant scans (doi:10.1093/nar/gkz1192)
Read counts are not given, so values of variants with three or more changes are uncertain.

B1: CPEB3 Ribozyme (parent)
chain: UAACAGGGGGCCACAGCAGAAGCGUUCACGUCGCAGCCCCUGUCAGAUUCUGGUGAAUCUGCGAAUUCUGCUGUAUAUCUC

Variants of: B1
Assay: self-cleavage, relative activity (ratio to wild type); higher = more cleavage; in vitro, sequencing
In short: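 For each CPEB3 ribozyme variant, relative activity is its cleaved/total read fraction divided by the unmutated ribozyme's. Barcoded error-prone PCR libraries were transcribed by T7 RNA polymerase (5 hours, 37°C) and held in DNase I for 15 min before an EDTA stop, with cleavage occurring throughout. Template-switching reverse transcription and Illumina sequencing were used to read the RNAs. A 5-read minimum applied, and results are the mean of three batches.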

Variant | self-cleavage
A15G U41C A45C | 0.35
A15U A18U G33U C38U U54C | 0.17
A15U A18U G33A U58C U67C U76C | 0.04
A15G U26C U43A A56G | 0.11
A15G G42C A47U U51A G63U U80C | 0.34
A15G U41C U58C | 0.26
A15G U26C U54C | 0.48
A15G U48C U80A | 0.58
A15G G42A C59A | 0.24
A15U A18G U26C A57G | 0.2
A15G U26G U43C | 0.71
A15G G63A U67C | 0.21
A15G U72C U78C | 1.19
A15G U31C U54C | 0.22
A15G U41A C62A U69A | 0.12
A15G U26C A45C U60C | 0.37
A15G C40G U41C A64G U72A | 0.31
A15G U25A U49C | 0.07
A15G G22C U69A U80A | 0.18
A15G U67C C81A | 0.3
A15G U26C U31A | 0.34
A15G U74C U78C | 1.03
A15G U26A U31A C37A U49C A57G | 0.23
A15G C39U U41C U54G U69A | 0.45

Variant | self-cleavage
A15G U26G A35U U41A U51C U80C | 0.39
A15G U43A U60C | 0.28
A15G U43C A45G G63U U78C | 0.44
A15G G33A A35G A56U U58A U67A | 0.11
A15U A18G U31G U58C U67C | 0.09
A15G G33A A57G | 0.07
A15G C39A A45G | 0.07
A15G U26C U58C U69A | 0.21
A15G U25C A45G U80G | 0.33
A15G G30U C32U U41C U48C U67C | 0.05
A15G U49C A57U A64G | 0.07
A15G U72C U76C | 1.22
A15G U26A U41C G52C G53A C59U U60C | 0.19
A15U A18G A45G | 0.08
A15G U26C A45U U66A | 0.07
A15G C50A U51C G52U U60C | 0.23
A15G G22A U31C A75U | 0.31
A15G U26C U48C | 0.3
A15U A18U U26A C44A U51A A64G U78G | 0
A15G G24A U60C | 0.17
A15G U41A U69G | 0.26
A15G U25C G53U | 0.11
A15G U25C G53A | 0.56
A15G C40U U80C | 0.66

Variant | self-cleavage
A15G U25C U31C U72C | 0.42
A15G U31C A45G U51A A56G U69A U76C | 0.07
A15G U43C A45U C59U U78C | 0.08
A15G G33C A35U U43G A56G | 0.07
A15G U41A U48C A56U U80G | 0.22
A15G U25C U31C C32U | 0.3
A15G U48C A56G | 0.19
A15U A18G C68U | 0.28
A15G U25C U31C U49A | 0.07
A15G U31C G33A A45G A57G U66C U80C | 0.15
A15G G16A C38U U41A | 0.08
A15G C40A U48A U69C A77G | 0.1
A15G U26C U31C G33U | 0.22
A15G U41C A56U | 0.15
A15G U25C U26A U72C | 0.06
A15G U26A U31C U48C | 0.08
A15G U58C U60A | 0.14
A15G U60C U78C | 0.39
A15G U26C U43A U51C A57G U74C | 0
A15G U54C U60A | 0.25
A15G U48C U78C | 0.47
A15G U41G U54C A64U | 0.06
A15G U43C G46A A56G U67C | 0.13
A15G G24A U25A | 0.05

Variant | self-cleavage
A15U A18G U54C G61C U72C | 0.18
A15G U26C A57G | 0.4
A15G U31A A64U | 0.42
A15G U41C U58C U78A | 0.24
A15G U25C C38U A45G U51C C71A U72A | 0.07
A15G U26G U41C U48C A65G U67C | 0
A15G U41G U51C U72A U80C | 0.21
A15G U51C A64G U78C | 0.5
A15G U41C A45U G63A C68A | 0.17
A15G U51A U58A | 0.3
A15G U25C C29A C38G | 0.15
A15U A18G A56G U69C | 0.56
A15G U60A U67C U72C | 0.6
A15G G16U G73C | 0.85
A15U A18G U54C U67C | 0.1
A15G C39A U41G U74A | 0.49
A15G G19U A35G U41C A75U C79A | 0.27
A15G U49C U58C U78A | 0.06
A15G G61C U72C | 0.45
A15G U25C U31C | 0.45
A15U A18G U58C A64G | 0.14
A15G U60C G73C | 0.52
A15G U31C U51C A57U U60C | 0.11
A15U A18G A64U U67A | 0.12

Variant | self-cleavage
A15G U51A U76C | 0.49
A15G U25C U43A A64U U66C | 0.2
A15G U58C A64G | 0.27
A15G G42A U69A A75G | 0.48
A15G U31A A64G U69A A75G | 0.08
A15G G30A A56G | 0.4
A15G C50G U60C | 0.19
A15G C39G U43C U58A U80C | 0.18
A15G U41C U49C C79A | 0.2
A15G U41C A77G | 1.06
A15G U31A U41G U60C U78C | 0.12
A15G U51A C59U U69C | 0.24
A15G U43C G70C | 0.14
A15G U67C U74C | 0.18
A15G G24A A35U U41C U72G | 0.08
A15U A18G A20U U31A U78C | 0.05
A15G C44U U54A | 0.28
A15G U25C A45G U78C | 0
A15G G33A A64G C71G U78A | 0.04
A15U A18U A64U U67A | 0.16
A15G U26C U41G A65G | 0.09
A15U A18U A47G U78C | 0.1
A15U A18G U43G G70A | 0.24
A15G U51C U76C | 0.73

Variant | self-cleavage
A15G G19C U41C U66A U78C | 0.12
A15U A18G U49C A56G U76A A77G | 0.21
A15G G16A A20U A28U G42A U54C | 0.02
A15G U26C U54C U58C U60A | 0.34
A15G U25C U26G A57G A75G | 0.34
A15G U26C C34U U66C | 0.06
A15G U43C G61A | 0.14
A15G U31A A75G | 0.77
A15G U26A U41C A57G | 0.52
A15G U26C A28G U69A A77G | 0.17
A15G G33U U76A | 0.12
A15G U25C U51A U60C A65C | 0.1
A15G U25A U51C U67C | 0.04
A15U A18G A47U G53A C71A U80A | 0.03
A15U A18G U69C U74C | 1.03
A15G U25C U26A U78C | 0.13
A15G U51G A57U | 0.42
A15G U26G C32A A56U U60C | 0.06
A15G U60C A77G U80C | 0.35
A15G U54A U80A | 1.15
A15G U48C U66C | 0.34
A15G U26C U49G | 0.27
A15G C62U A65G U80C | 0.32
A15G U25A U69C | 0.13

Variant | self-cleavage
A15G U54A A57U | 0.35
A15G U58C U72C | 0.63
A15G U54C U67A | 0.4
A15G U49C U51A G73C | 0.67
A15G G33A U54C | 0.16
A15G U25A A35G U66C A75G | 0.02
A15G G42A U43C | 0.27
A15G U26A A35U U41C A57G | 0.31
A15G U26C A75U C81G | 0.67
A15G U41C U43C A45G | 0.14
A15G U51C A65G U66C | 0.45
A15G G24A G33A U41G G73A | 0.14
A15G U48C A56G U80A | 0.12
A15G U41A U43C A57G | 0.12
A15G C59A U69C U74A | 0.16
A15G U26C U48C A57U | 0.05
A15G U41C U48C U78C | 0.62
A15G U26A A35C U41A U51C U74A | 0.1
A15G U25C U41C U72C | 0.21
A15G U43C C44U U69C | 0.08
A15G C40U U67A | 0.11
A15G U26A U43C | 0.39
A15G U31A A56G | 0.36
